Among all 270,000 compounds or so, about 620 (0.23%) were called active. This list was built around the results that the source calls inconclusive (neither active nor inactive); the mix of calls is not that of the screen. Calls come from the whole dose curve; as a rule, active = well fitted inhibition curve with a large enough effect in the polarisation, with a control signal flat (not every such curve was filed as active); inconclusive = small, poorly fitted or top-dose-only effect, or effect the other way, or a change in a side signal; inactive = no such curve, though single readings can be large or run the other way; the % refers to the polarisation. Potencies of inconclusive entries are doubtful fits and often do not repeat. “Side channel” marks fits to a control or component signal instead of the main read-out.
target: Menin (Homo sapiens) (UniProt O00255); test: qHTS Assay for Inhibitors Targeting the Menin-MLL Interaction in MLL Related Leukemias: Competition With Texas Red Labeled MLL-derived Mutant Peptide; settings: fluorescence polarization; FP activity change, negative = inhibition: at 61.6 µM (top of the series); for FP activity change, negative = inhibition: % of control where 0% means no effect
UniProt O00255, sequence (O00255 whole entry, looked up): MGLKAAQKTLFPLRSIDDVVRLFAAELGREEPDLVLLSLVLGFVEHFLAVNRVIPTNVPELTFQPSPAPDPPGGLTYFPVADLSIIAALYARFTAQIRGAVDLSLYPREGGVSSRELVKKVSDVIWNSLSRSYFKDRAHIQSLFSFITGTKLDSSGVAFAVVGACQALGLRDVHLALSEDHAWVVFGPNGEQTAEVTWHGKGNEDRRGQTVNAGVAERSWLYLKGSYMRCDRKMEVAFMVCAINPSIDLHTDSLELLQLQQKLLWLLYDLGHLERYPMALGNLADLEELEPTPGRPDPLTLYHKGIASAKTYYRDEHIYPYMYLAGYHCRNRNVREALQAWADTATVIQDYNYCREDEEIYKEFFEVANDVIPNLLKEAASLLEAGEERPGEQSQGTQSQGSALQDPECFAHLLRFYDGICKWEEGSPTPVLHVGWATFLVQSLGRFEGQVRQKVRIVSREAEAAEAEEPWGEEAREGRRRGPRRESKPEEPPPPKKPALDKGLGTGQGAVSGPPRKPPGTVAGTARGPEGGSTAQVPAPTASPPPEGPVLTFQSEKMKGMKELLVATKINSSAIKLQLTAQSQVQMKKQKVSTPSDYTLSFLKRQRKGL
Potency is the fitted concentration of half-maximal effect; tags give direction and shape of the fitted curve or compound fluorescence and quenching.

Potency, active:
CCN(CC)c1ccc(N=Cc2ccccc2[N+](=O)[O-])cc1 17.8 µM

Potency, inconclusive:
COc1ccc(S(=O)(=O)N2CCCC(C(=O)NCC3CCCO3)C2)cc1C (stereo unspecified) 7.08 µM [inhibitor, full curve]
Cc1cccc(NC(=O)CN2C(=O)S/C(=C\c3ccc(O)c([N+](=O)[O-])c3)C2=O)c1 20 µM [quencher, side channel, partial curve]
O=C(C1=C[C@@H]2[C@H]3C(=O)N(c4ccccc4Cl)C(=O)[C@H]3[C@@H](C(=O)c3ccc(Cl)cc3)N2C=C1)c1ccccc1 15.8 µM [quencher, side channel, partial curve]
COc1ccc(Br)cc1S(=O)(=O)N(CC(=O)N1CCOCC1)c1ccccc1 28.2 µM [inhibitor, single point]
CCN1CCN(CCNC(=O)c2ccc(/C=C3\Sc4ccccc4N(Cc4ccccc4F)C3=O)cc2)CC1 3.98 µM [fluorescent, side channel, full curve, poor fit]
CN(Cc1ccccc1)S(=O)(=O)c1ccc(OCC(=O)Nc2cccc([N+](=O)[O-])c2)cc1 8.91 µM [quencher, side channel, full curve, poor fit]
COc1ccc(-n2c(N)c(C(=O)NCc3cccnc3)sc2=S)cc1 39.8 µM [fluorescent, side channel, single point]
CN(c1ccc(O)cc1)c1nc(-c2ccccc2)cs1 15.8 µM [quencher, side channel, partial curve]
CNCCC=C1c2ccccc2CCc2ccccc21 15.8 µM [fluorescent, side channel, partial curve]
C#CCOCCOCCOCCNc1nc(N2CCN(C(=O)[C@H](CCC(=O)O)n3cc(C(N)Cc4ccc(O)cc4)nn3)CC2)nc(N2CCN(C(=O)[C@H](Cc3cc4ccccc4[nH]3)n3cc(C(N)CC(C)C)nn3)CC2)n1 (stereo partly specified) 10 µM [inhibitor, partial curve]
COc1cccc(-c2nc(NCC3CCCO3)c3ccccc3n2)c1O (stereo unspecified) 25.1 µM [quencher, side channel, partial curve]
CCOC(=O)C1(CCCc2ccccc2)CCN(C(=O)c2cc(C)nc(C)n2)CC1 5.01 µM [fluorescent, side channel, partial curve]
O=c1oc2ccccc2cc1-c1nc2c(s1)CCc1ccccc1-2 39.8 µM [quencher, side channel, single point]
COc1ccc(C(NC(=O)/C=C/c2ccco2)c2ccc(OC)cc2)cc1 39.8 µM [quencher, side channel, single point]
CCN(C(=N)N=C(N)N)c1ccccc1 39.8 µM [fluorescent, side channel, single point]
Cc1ccc(S(=O)(=O)/N=C2/NC(=O)/C(=C/c3ccccc3)S2)cc1 22.4 µM [quencher, side channel, single point]
CCc1cccc(CC)c1NC(=O)C(CC)Sc1nc2ccncc2[nH]1 (stereo unspecified) 6.31 µM [inhibitor, full curve, poor fit]
C/C(=N\Nc1nc2ccccc2s1)c1cccs1 2.51 µM [quencher, side channel, full curve]
COc1ccc(S(=O)(=O)Nc2ccc3ccccc3c2)cc1C 25.1 µM [quencher, side channel, single point]
Cc1c(C(c2cccc(Br)c2)c2c(C)n(C)n(-c3ccccc3)c2=O)c(=O)n(-c2ccccc2)n1C 35.5 µM [inhibitor, single point]
COc1ccccc1NC(=O)CCSc1nnnn1C 11.2 µM [inhibitor, partial curve]
CCOc1ccc2[nH]cc(-c3csc(N)n3)c2c1 11.2 µM [quencher, side channel, partial curve]
Cc1ccc(S(=O)(=O)c2c(C)cc(C)nc2Oc2cccc(C(F)(F)F)c2)cc1 3.16 µM [inhibitor, full curve]
COc1cc(/C=C2/C(=N)N3N=C(CC(=O)N4CCOCC4)SC3=NC2=O)ccc1OC(C)c1ccccc1 (stereo unspecified) 28.2 µM [quencher, single point]
c1ccc(-c2nnc(N3CCCC3)nc2-c2ccccc2)cc1 11.2 µM [inhibitor, partial curve]
COc1ccc(C(=O)NCCCSc2ccccc2)cc1F 35.5 µM [fluorescent, side channel, single point]
O=C(Nc1ccc(NS(=O)(=O)c2ccccc2)cc1)c1ccccc1 39.8 µM [fluorescent, side channel, single point]
CCC1=C[C@@H]2CN(C1)Cc1c([nH]c3ccccc13)[C@@](C(=O)OC)(c1cc3c(cc1OC)N(C)[C@H]1[C@@](O)(C(=O)OC)[C@H](OC(C)=O)[C@]4(CC)C=CCN5CC[C@]31[C@@H]54)C2 1 µM [inhibitor, partial curve]
COc1ccc(C(C)=O)cc1COC(=O)c1cc2ccccc2cc1O 22.4 µM [inhibitor, single point]
CCOC(=O)c1ccc(NC(=O)Nc2ccc(OC)c(OC)c2)cc1 11.2 µM [quencher, side channel, partial curve]
CCCN1CCc2c(sc3nc(SC)n(-c4ccccc4)c(=O)c23)C1 8.91 µM [inhibitor, single point]
CCC1CCC(N2CCN(c3ccc([N+](=O)[O-])cc3)CC2)CC1 (stereo unspecified) 5.01 µM [inhibitor, partial curve]
Cc1ccc(NC(=O)CS(=O)CC(=O)N(CC(=O)NC2CCCC2)c2ccc3c(c2)OCCO3)cc1 (stereo unspecified) 22.4 µM [fluorescent, side channel, partial curve, poor fit]
COc1cccc(NC(=O)c2cc3cccc(OC)c3o/c2=N\O)c1 20 µM [fluorescent, side channel, single point]
CC(C)C1Oc2cc3oc(=O)ccc3cc2C1=O (stereo unspecified) 20 µM [inhibitor, partial curve]
CC1CCCCN1S(=O)(=O)c1ccc(C(=O)Nc2nnc(-c3ccccc3Cl)o2)cc1 (stereo unspecified) 20 µM [quencher, side channel, partial curve]
O=c1oc(-c2ccccc2[N+](=O)[O-])nc2ccccc12 31.6 µM [quencher, side channel, single point]
O=S(=O)(Nc1ccc(Oc2ncccn2)c(Cl)c1)c1ccc(Cl)cc1 20 µM [quencher, side channel, single point]
CCOC(=O)/C(=N\Nc1ccc(C(C)=O)cc1)c1csc(Nc2ccccc2)n1 6.31 µM [quencher, partial curve]
Nc1cc(N)nc(SCC(=O)c2ccccc2)n1 8.91 µM [inhibitor, partial curve, poor fit]
CCC(=O)NC(=S)Nc1cccc(NC(=O)c2ccc(Cl)cc2Cl)c1 39.8 µM [inhibitor, single point]
O=S(=O)(Nc1ccc2c(c1)OCO2)c1ccc(Br)s1 25.1 µM [quencher, side channel, single point]
COc1cccc(/C=N/NC(=O)c2ccc(-c3ccccc3)cc2)c1O 11.2 µM [quencher, side channel, partial curve]
Cn1ccnc1CC(O)(c1ccccc1)c1ccccc1 8.91 µM [inhibitor, partial curve]
CSc1oc(-c2ccccc2)nc1S(=O)(=O)c1ccc(C)cc1 39.8 µM [quencher, side channel, single point]
COc1cccc(C2C=C(Nc3ccccc3)C(=O)N2c2ccccc2)c1 (stereo unspecified) 8.91 µM [quencher, side channel, partial curve]
CSc1nc(=S)c2[nH]c(=S)[nH]c2[nH]1 15.8 µM [quencher, side channel, partial curve]
O=C(NN1C(=O)/C(=C/c2ccc(O)c(O)c2)SC1=S)c1ccccc1 17.8 µM [fluorescent, side channel, partial curve]
N/C(=N\OC(=O)Nc1ccc(Cl)cc1)c1ncc(C(F)(F)F)cc1Cl 31.6 µM [quencher, side channel, single point]

FP activity change, negative = inhibition, inactive:
FC(F)(F)c1cnc2c(c1)[nH]c(=S)n2-c1ccc(Cl)cc1 -3.71%
CN(CC(=O)Nc1ccc(Cl)c(Cl)c1)C1CCCCC1 -6.15%
Cc1nc2cc(-c3cccc(Cl)c3)nn2c(N2CCN(C(=O)c3ccco3)CC2)c1C 3.49%
COc1cc(C=Nc2ccccc2C(=O)Nc2ccccc2)cc(OC)c1OC 6.63%
C[N+]1(C)CCC(=C2c3ccccc3CC(=O)c3sccc32)CC1 -19.1%
COc1ccc(C2=CC3=C(Br)C(=O)C(C)(OC(=O)c4ccc(Cl)nc4)C(=O)C3=CO2)cc1 (stereo unspecified) 9.31%

Reference: PubChem BioAssay AID1768 (National Center for Advancing Translational Sciences (NCATS), 2009)
